# Data from the supplement of paper PMC3334620.
# The full ranking holds about 33,000 sequences; the median of “E-score (-0.5 to 0.5)” is about -0.041, and the highest 2% start at about 0.37. This is one part of the list.
# Target: T1, Ecm22 (UniProt Q05958)
# T1 sequence: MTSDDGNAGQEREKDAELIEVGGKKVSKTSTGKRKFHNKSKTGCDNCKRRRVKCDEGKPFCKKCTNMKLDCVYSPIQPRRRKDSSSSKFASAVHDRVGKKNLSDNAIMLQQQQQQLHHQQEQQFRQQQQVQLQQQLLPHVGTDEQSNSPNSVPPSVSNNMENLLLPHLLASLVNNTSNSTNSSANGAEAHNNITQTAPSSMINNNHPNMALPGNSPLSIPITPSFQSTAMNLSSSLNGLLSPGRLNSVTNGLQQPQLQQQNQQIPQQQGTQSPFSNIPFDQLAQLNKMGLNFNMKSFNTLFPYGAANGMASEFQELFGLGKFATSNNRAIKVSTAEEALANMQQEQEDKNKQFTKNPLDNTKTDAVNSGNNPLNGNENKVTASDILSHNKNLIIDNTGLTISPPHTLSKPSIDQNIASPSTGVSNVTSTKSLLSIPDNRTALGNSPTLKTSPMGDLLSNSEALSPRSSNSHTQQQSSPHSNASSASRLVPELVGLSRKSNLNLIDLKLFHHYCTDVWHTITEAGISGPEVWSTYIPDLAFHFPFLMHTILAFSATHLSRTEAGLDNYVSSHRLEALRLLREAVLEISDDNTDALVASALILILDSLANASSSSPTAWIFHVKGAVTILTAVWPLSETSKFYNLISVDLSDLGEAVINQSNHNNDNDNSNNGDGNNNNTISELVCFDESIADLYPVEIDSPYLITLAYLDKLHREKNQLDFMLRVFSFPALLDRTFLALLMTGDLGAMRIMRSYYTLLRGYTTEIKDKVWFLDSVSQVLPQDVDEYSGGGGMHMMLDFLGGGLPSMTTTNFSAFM
# Experiment: PBM E-score (8-mer binding enrichment) (E-score (-0.5 to 0.5)); higher = stronger / more preferred TF binding; most listed sequences are background and not binding sites
# Conditions: protein concentration: 200 nM; construct: GST-full length
# Outline: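 For each ungapped eight-base word taken together with its reverse complement, the Universal PBM Analysis Suite assigned an E-score. Binding data came from GST-tagged yeast transcription factors, applied at about 100-200 nM, on universal all-10-mer Agilent arrays made double-stranded by primer extension. Fluorescent anti-GST marked bound protein, and scans were normalised with masliner.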
row,Sequence,PBM E-score
1,GGAGTGCA,0.0316
2,GTAAATAC,0.152
3,AGTGAGCG,-0.0993
4,AAGCAAGC,-0.00208
5,GAAAAGTA,-0.0331
6,AGCATGGG,-0.291
7,GAATGAGA,-0.255
8,CTTGGGCA,-0.197
9,GCTCCCCA,-0.0815
10,ATGGCACG,-0.128
11,CAACATGG,-0.18
12,ACCCTGCA,0.00985
13,ATAGATTC,0.00042
14,ATACGTAT,0.374
15,AACGATTA,0.382
16,ATCGGCGA,-0.129
17,GGGACGTA,-0.0009
18,AAAAGTGT,-0.166
19,AATTACCA,-0.123
20,GCCCATAA,-0.142
21,CGCTTACA,0.151
22,GAATCGAC,0.163
23,CTAACCTA,-0.0507
24,GAGACTGA,-0.221
25,CTGTAGCC,-0.238

row,Sequence,PBM E-score
1,ATTATGTC,0.0663
2,GGGCAGGA,-0.171
3,AAGCTTCC,-0.2
4,TGTAGCAA,-0.103
5,GCTCACCA,-0.237
6,TAGTTTAA,0.115
7,AGTGGCCA,-0.14
8,CATGCATG,-0.382
9,AACTCATT,-0.154
10,CTAAGTAG,-0.232
11,AGAATACC,0.066
12,AGTACCGG,-0.102
13,GACCGGGC,0.0834
14,GAGGTCGC,0.0249
15,CGAGACTC,0.235
16,GCGTAGCA,0.0406
17,TAACCCTA,-0.0664
18,ACCGCCGT,0.17
19,GCAATGCC,-0.159
20,CCACGTAA,0.065
21,ACCGGATC,-0.0309
22,GGACAAGA,-0.103
23,ATATTCAA,0.0664
24,CCTAAGAA,-0.0994
25,GTCCCCCA,-0.157

row,Sequence,PBM E-score
1,CCACTCCG,0.019
2,AAGGTTGG,-0.0277
3,GATTGAGA,-0.0525
4,GTATTGGA,-0.0292
5,AAGCTACG,0.218
6,CTTAGTCA,-0.192
7,AACGATAC,0.389
8,GCCGAAAC,0.0737
9,AATTAGAT,0.158
10,GCATCGCA,0.0137
11,GATAGTCC,-0.143
12,GCCATGTA,-0.0931
13,TAATAACA,0.0792
14,ACGATCCA,0.329
15,CAGTAATC,-0.143
16,AGACAAAG,0.0946
17,AACTTTAT,-0.0369
18,ATTTTACG,0.392
19,CGAATGAG,0.109
20,ACTGACAT,-0.124
21,GGCTAAAA,-0.217
22,CCTCTAAC,-0.0433
23,AGACGAGA,0.166
24,ATAGATCC,-0.0425
25,ATAATGGA,-0.193

row,Sequence,PBM E-score
1,GGCAAGTA,-0.243
2,AATAAAAC,0.0428
3,CATGATTC,-0.106
4,GTCAGAAA,-0.119
5,ACACAACC,0.0118
6,CGTGCAGC,-0.0705
7,ATTACTAA,-0.0453
8,GGGGGCCA,-0.188
9,ACCCATTC,-0.0208
10,ATACTATG,0.0425
11,ACATGCTG,0.0658
12,GTATTCCA,0.0764
13,CGAAGTGC,0.197
14,CCTAGGCG,-0.215
15,TTACTAAA,0.152
16,AATTCACA,0.0464
17,GACGGGGC,0.0935
18,CAACGTTA,-0.00116
19,CTACACAC,-0.137
20,CCCGTAGC,0.154
21,AATAAGCG,0.0338
22,CATTTCCG,0.0483
23,ACCCCACA,-0.178
24,AAGGGTGC,-0.309
25,TAGTCTCA,-0.0764

row,Sequence,PBM E-score
1,CGTTAGGC,0.0897
2,CAAAAAGA,-0.152
3,CCCGCCAG,0.0747
4,CTACGACA,0.347
5,ACCCAGAG,-0.00161
6,CTCGGAGC,0.0833
7,AACCTACT,-0.063
8,AGCTCCAA,-0.15
9,CCTGGCAA,-0.235
10,GGCCTCGA,-0.196
11,ATTACCGC,0.0569
12,GTCACTAA,-0.00743
13,GCTTCCCC,-0.098
14,ATCAACCC,0.108
15,AGGCGCGA,-0.00125
16,TCAAGGGA,-0.14
17,GGAGATCC,-0.112
18,TTGCAAAA,0.0789
19,AATGTCTA,-0.126
20,CACCGACC,-0.116
21,CAAGCAAG,-0.0582
22,ACTGCGAT,-0.121
23,AGACCGCA,-0.0494
24,AATGTTAA,-0.238
25,CATTTGGA,-0.138

row,Sequence,PBM E-score
1,AGAGTTCA,-0.245
2,CTAAGTTC,0.0786
3,AACATATA,0.0873
4,AGGGCTGG,-0.23
5,CGGGGGGA,-0.227
6,GACCCGTC,-0.0698
7,GTTTGGAA,0.17
8,CGCTTCCA,-0.0544
9,ATTTTACC,0.06
10,CGCGACAC,0.0771
11,GGACAGAC,-0.0959
12,ATAGGCGG,-0.0579
13,CGAGGAAG,0.175
14,ACCACGTA,0.214
15,GAAGGATC,-0.11
16,AGTGCGTA,0.14
17,GACAGTGC,0.0371
18,ACTTCTCA,-0.145
19,CAATACCG,-0.0825
20,CGTGAGCA,-0.0373
21,CCTTATGA,-0.00603
22,CCTTTCAG,-0.0395
23,CAAGTTAC,-0.0149
24,GGAGCGCA,-0.22
25,ATCATCTG,-0.00905

row,Sequence,PBM E-score
1,ACCATTTG,-0.0622
2,AAGATTTC,0.0425
3,TCAGACCA,-0.135
4,GAACTAAA,0.0893
5,AGCTTGAA,-0.209
6,CAGTCCCG,-0.0674
7,CGTGTCAA,-0.282
8,GCGATTAA,0.124
9,AACTATAT,0.0975
10,AGTAGCTG,-0.0961
11,CGTGCTAG,-0.0992
12,GAGGCGTA,0.155
13,GCGCATTA,0.0458
14,AGATCTTA,-0.0601
15,GTTACTCA,0.0484
16,CTTGCGCA,0.0373
17,CCGACGGC,0.129
18,CGGGATGC,-0.00151
19,CGTGATGC,-0.0688
20,CGACGGAC,0.109
21,GATGTGTA,0.117
22,CCATTGGA,-0.162
23,CTTTGCGC,0.00514
24,ATCAAGCG,-0.00695
25,CATTTCGC,0.218

row,Sequence,PBM E-score
1,AAAATGAA,-0.0273
2,ACAATGTG,-0.0558
3,GTTTGAAA,-0.00051
4,CGCTTACC,0.269
5,GCCACATA,-0.183
6,ACATGCGT,0.0355
7,CCTTAACG,0.261
8,AAATGCGG,0.0727
9,CACCACCA,-0.196
10,CTGCACCC,-0.00101
11,CGAGGAAA,0.103
12,ATGACGGC,-0.236
13,CTATTTTC,-0.0389
14,GCGCTGAC,-0.288
15,CATATACA,0.0321
16,GGATGCCC,-0.181
17,ACCGAGCT,0.235
18,CTAGGTAC,0.122
19,CGCAGACA,-0.0696
20,CATAGTGA,-0.00227
21,ATGGTCAA,-0.043
22,CATCCCAG,-0.0467
23,ATATTCCA,-0.0712
24,AAGGTACA,-0.0107
25,CGCTAAAG,0.138

row,Sequence,PBM E-score
1,AAAAGTCA,-0.236
2,CAAAGAGA,-0.148
3,ACTTGTGC,0.0182
4,TCGTTGAA,0.31
5,ATAACTCC,-0.0635
6,AAATCCTC,-0.132
7,GCTGGCCC,-0.269
8,CTTTACAC,0.0711
9,AGATATGC,-0.153
10,CAGCAGAG,-0.187
11,AAGCGTCC,-0.0106
12,AAAGCGAC,0.17
13,GGGAATAA,0.0656
14,ATAAAAAG,0.0542
15,ACGACCCG,0.271
16,ACGGGGGA,0.16
17,CCATCGCC,-0.203
18,CACGGTGC,-0.107
19,CCTATACA,-0.00901
